From paper PMC12136788
Substitutions are numbered along the chain they refer to. Some of the results follow.

T1: UNK ZnF1-3 (human, UniProt Q9C0B0 31-174)
T1 sequence: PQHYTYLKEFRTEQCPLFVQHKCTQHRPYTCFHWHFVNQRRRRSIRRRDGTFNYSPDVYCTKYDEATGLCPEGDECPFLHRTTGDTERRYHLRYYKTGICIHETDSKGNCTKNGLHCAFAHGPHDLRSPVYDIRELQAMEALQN

B1: chr2:127629987:127629988:-_ENSMUSG00000027379_ENSMUST00000028858|mus_mus|motif|central (ssRNA)
RNA: GGGAGUUCUACAGUCCGACGAUCACCAGAUGUUUCACAUUUUCCUGUAAAUACAGUUCCUUUAGGGAAAAGUUUCAUAUCGGUACUCUGACCCAGGUCAAUCAAUGCCAAGCCGGUAGCUAAGUCUUCAUCAGCCUGUUCCAACAACAGAGGAUUGAGCAUCA
B2: chr10:61005495:61005496:+_ENSG00000165443_ENST00000486074|hu_hu|FALSE|FALSE (ssRNA)
RNA: GGGAGUUCUACAGUCCGACGAUCAACUUAGGGUAUUUCAUCAUUGAAAGUAGUGGGAGGGGUAGGGAAUAGGAAAACACUAAAAUGGUUCUGAAUGAAAUUUGGAAAGUGGUAGUUGUUUGUUUUGGUGACAGUGGCAUGUGCCAACAGAGGAUUGAGCAUCA
B3: chr3:139075817:139075818:+_ENSG00000175110_ENST00000310776|hu_mus|FALSE|FALSE (ssRNA)
RNA: GGGAGUUCUACAGUCCGACGAUCUCAGGAUGCUGCGGAAUGACUGGUAACUAUUUCUUGAUAAGUUUGAAGUGCUAAUUCUAUAUAUGCUCCUCUCUGUGCUUCUGUUUUUGCGAAGACCUUAAUUAAGUCGACUCCCUCAGCCAACAGAGGAUUGAGCAUCA
B4: 57293318_57293438_1124_CDS_ENSMUSG00000079184_ENSMUST00000116468|mouse|control|control (ssRNA)
RNA: GGGAGUUCUACAGUCCGACGAUCUUUGGGUAUUGCUCUCCUUUCUAAAAAGGCAUUCGUGCUUUCAAGCUUCUUGAUCUCUUUUGGUUCCUCAAACUUUCUUGGCUUCGUCUUCUUCCUUCUAACUCGGGUACCAGCAUCCUCCAACAGAGGAUUGAGCAUCA
B5: chr4:107939148:107939149:-_ENSMUSG00000034636_ENSMUST00000043616|mus_mus|motif|central (ssRNA)
RNA: GGGAGUUCUACAGUCCGACGAUCCAUCUGGUUACCUCUGAAAAUUCCCACAGUUCCAUCAUUCAGGAGACCGUGGAAUGCGGUAGUCUGAAGAAGCCGGUCAGCCACCUCCUGUGGGAACACCCCAGGCUCCUGCAGACACAGCAACAGAGGAUUGAGCAUCA
B6: chr5:31261203:31261204:-_ENSMUSG00000045302_ENSMUST00000088063|mus_mus|FALSE|FALSE (ssRNA)
RNA: GGGAGUUCUACAGUCCGACGAUCGAAGCACACAACUUUCUGCAGCGGUUCAUUGCUGAAGUCUGUCUGUACUGCCUCCAAAUUCUUUACUUUGAGUUCAACCCCUUCGGGGUGAACUUGUGCUCCCGAUUUCUUCUCUGCUGGCAACAGAGGAUUGAGCAUCA
B7: chr10:61005217:61005218:+_ENSG00000165443_ENST00000486074|perfect_dup|motif|central (ssRNA)
RNA: GGGAGUUCUACAGUCCGACGAUCGUGAUUUCUGCCACGGUGCCCACAGAAAGAUCCACAGGGUCAGUGUAAAUGACUUCGGAAAUGACAUCCUGGGCAUGGUGGUAAACCAGCACCCCAUCUUCUUCUGUACAGGUCAAAAAUCAACAGAGGAUUGAGCAUCA
B8: chr16:17900988:17900989:-_ENSMUSG00000003527_ENSMUST00000003621|mus_mus|motif|central (ssRNA)
RNA: GGGAGUUCUACAGUCCGACGAUCGUAGGAGCUGAAGCAGACACCAUGAAGGAGUGUCACGUCCUGGCUGGCUUCCUCUCGGGUUUCCUCCCAGGCUUUCUGACUCAACCCAAGACCACUGCCCUCCUACAUCGAUUGACGAUCCAACAGAGGAUUGAGCAUCA
B9: 7680430_7680550_113_5pUTR_ENSG00000106399_ENST00000396682|human|control|control (ssRNA)
RNA: GGGAGUUCUACAGUCCGACGAUCGGGACUGCGGGGCCAGCCUCAGGUACCUCGUCUCGCGGGAGGCGCCGCAACCUUACUGUUUCCCCAUUCUUCCCGCGAACAGAGUCAAAAGAGCUAGGCGGGAGUCGGCACUAGCUGCUGCAACAGAGGAUUGAGCAUCA
B10: 51530015_51530135_2287_3pUTR_ENSMUSG00000036391_ENSMUST00000109097|mouse|control|control (ssRNA)
RNA: GGGAGUUCUACAGUCCGACGAUCGAAGACAGACAUUCGACCACCAGUUGGUGAUAUCAGCUUGAAUGCAGCCUGAAGUGCAGGACCCAAGGCACUCUGGGUCUCCAGCGUCUUCGUAAACAUUUGUGGCAGCGUUUUCAGUAACAACAGAGGAUUGAGCAUCA
B11: chr9:45784209:45784210:-_ENSMUSG00000003131_ENSMUST00000172450|mus_hu|FALSE|FALSE (ssRNA)
RNA: GGGAGUUCUACAGUCCGACGAUCGGAGUCUCCCACGAACAGUACAUCAGGCUCUUUGUCUUUACAGUCCAAAACAAAUCUGUUGUGCUGAGACAUCCAUCGGUCAUCUCCUUGAAUAUCUUCUGCUGCAUGCGGAAUAGCUGCCAACAGAGGAUUGAGCAUCA
B12: chr5:64741823:64741824:+_ENSMUSG00000029174_ENSMUST00000119756|mus_mus|FALSE|FALSE (ssRNA)
RNA: GGGAGUUCUACAGUCCGACGAUCAAUAAAUAUGUCAGACCCCACAGCUACAGGUCCCACACUAGCAAUAACAGGGAAUCUAAAAACUGUGAUUUCCUUAUGAAACAUUUACCUGUGACUUGAAAGGGUAAGCAAAAACCAUACCAACAGAGGAUUGAGCAUCA
B13: chr7:44244176:44244177:+_ENSG00000106636_ENST00000223369|hu_mus|hu_hu_hu_mus_False|38_48 (ssRNA)
RNA: GGGAGUUCUACAGUCCGACGAUCACUGUCGCUCCGGACGUAGACAUGGCAAAGAUACUCUUGUUCUUUGACAGAAGCUCUGCUGCCUUUCGAUGAGCGCUCCACAAUCAGUUGACUUGUAAAGGUCAUGAAUUCCUGCACACUCAACAGAGGAUUGAGCAUCA
B14: chr7:141450121:141450122:+_ENSG00000106028_ENST00000265304|hu_mus|hu_hu_hu_mus_True|88_108 (ssRNA)
RNA: GGGAGUUCUACAGUCCGACGAUCUCAUCCUUUCUACGCCUUUUCUUUCGUCUGGUCACUCAGAAAUAUAAUGUUAUCAGCUAUGAUUGUUGUUGCUUGCCGCCUCACAUUGUUUUUAUCCAUGUACUCGCCAUAGUCCACUUUCAACAGAGGAUUGAGCAUCA
B15: chr7:141450121:141450122:+_ENSG00000106028_ENST00000265304|hu_mus|hu_hu_hu_mus_True|8_38 (ssRNA)
RNA: B14 RNA with U30G, C36U, C48U, C99U, G129A
B16: chr3:101181902:101181903:+_ENSMUSG00000042035_ENSMUST00000043983|mus_hu|FALSE|FALSE (ssRNA)
RNA: GGGAGUUCUACAGUCCGACGAUCUGAUCUCCCUCAUUCGGAUUCCCCAGAGAGAACAGGGCAGGUUUCGUCAAAACCUUUGACGGCCAAAUCACCCUGCCUGGCAUCAACCGUUUGGGUUUCUUCACCAAAAAGUCCGUUUCCCAACAGAGGAUUGAGCAUCA
B17: chr22:19452774:19452775:-_ENSG00000070010_ENST00000399523|hu_hu|hu_hu_hu_mus_False|28_108 (ssRNA)
RNA: GGGAGUUCUACAGUCCGACGAUCCUUUUCAUUAUAGUUGAUAGCAAUCACAUCUCCAGUCGUCAGACAGGCGAAGUUUCUCAAUGCAUUUUCUAAUACCGCUUUAGGGUUGGUGAUAUCCAGGAAGUCUGGGCUCUGAGGCUGCAACAGAGGAUUGAGCAUCA
B18: 96524325_96529108_522_3pUTR_ENSMUSG00000031751_ENSMUST00000053766|mouse|control|control (ssRNA)
RNA: GGGAGUUCUACAGUCCGACGAUCAUGAACUUGUAGAAAAUAAAAUUCCAAAACUUGUCUUUGAGAUGCUGUCUUUCACUCACUCGAAGAGGGCCGAACACAAUACACUGGAUAAGCUUAGCCACCAACAUCAAAACACAGCAACAACAGAGGAUUGAGCAUCA
B19: 156051411_156051531_318_3pUTR_ENSG00000254726_ENST00000532414|human|control|control (ssRNA)
RNA: GGGAGUUCUACAGUCCGACGAUCCAGGCGCAGCUCGGCCUCUUUGUAGAGAGCGCAGAGCUUGGCGUCGCUCGCCCCUUUGGGGGCGGUGGGGGGCUGGGGCGUCUGCGCUGCGGGGGCCGCCGUCGGGGCGGCCGGGGGCGCCAACAGAGGAUUGAGCAUCA
B20: chr17:62495851:62495852:-_ENSG00000108654_ENST00000581693|hu_mus|FALSE|FALSE (ssRNA)
RNA: GGGAGUUCUACAGUCCGACGAUCUCACUGUACAGUUACUUUUGUGAAAACACUGCCUGCAUUUUCUAGUACAAAAAAAACCUAAAAAUUGUUUCAGGAAUGUAGAGAAAUAUCCAACUUAAAUAGCGAAAAAAGUGCACCAUACAACAGAGGAUUGAGCAUCA
B21: chr10:33221514:33221515:-_ENSG00000150093_ENST00000302278|perfect_dup|motif|central (ssRNA)
RNA: GGGAGUUCUACAGUCCGACGAUCAUUUGGCCCUGCUUGUAUACAUUCUCCACAUGAUUUGGCAUUUGCUUUUAAACAUCGGUUUUCAUCUGUUUGAGCAAACACACAGCAAACUGAACUGAUCAGUCCAAUCCAGAAAAUUGGCAACAGAGGAUUGAGCAUCA
B22: chr2:198351390:198351391:-_ENSG00000144381_ENST00000345042|hu_hu|hu_hu_hu_mus_False|28_88 (ssRNA)
RNA: GGGAGUUCUACAGUCCGACGAUCUCAUUCCCACCCUCCACAGAAAGGCUGCUUAACAACUCUCAUGUGGUGACACAGCGCUACAGUCCUGAUGCUCACAGAACAGUAGUAAAAAUGCAGUGAUUUAAGUUGAAAGCAGGACACCAACAGAGGAUUGAGCAUCA

Molecular target: T1, UNK ZnF1-3
Assay: nsRBNS (natural sequence RNA bind-n-seq); RBNS binding buffer (assumed for nsRBNS): 25 mM Tris pH 7.5, 150 mM KCl, 3 mM MgCl2, 0.01% Triton X-100, 500 ug/ml BSA, 20 U/ml SUPERase-In, 4 C; UNK is unkempt and MSI1 is Musashi-1; names of the RNAs are library labels; protein concentration not given here; high values mean tight binding

| Binder | binding signal |
| --- | --- |
| B1 | 0.764 enrichment R |
| B2 | 2.17 enrichment R |
| B3 | 0.909 enrichment R |
| B4 | 0.314 enrichment R |
| B5 | 0.731 enrichment R |
| B6 | 0.423 enrichment R |
| B7 | 0.663 enrichment R |
| B8 | 1.09 enrichment R |
| B9 | 0.65 enrichment R |
| B10 | 0.985 enrichment R |
| B11 | 0.952 enrichment R |
| B12 | 1.4 enrichment R |
| B13 | 0.622 enrichment R |
| B14 | 0.351 enrichment R |
| B15 | 0.359 enrichment R |
| B16 | 0.936 enrichment R |
| B17 | 0.845 enrichment R |
| B18 | 2.17 enrichment R |
| B19 | 0.651 enrichment R |
| B20 | 1.09 enrichment R |
| B21 | 1.09 enrichment R |
| B22 | 1.3 enrichment R |
